The text below walks through data of article PMC12820563, “FoxP3 forms a head-to-head dimer in vivo and stabilizes its multimerization on adjacent microsatellites”.

Some of the results follow.

The experiment addresses T1, MBP-FoxP1dN (Mus musculus, UniProt P58462 326-579).
T1 sequence: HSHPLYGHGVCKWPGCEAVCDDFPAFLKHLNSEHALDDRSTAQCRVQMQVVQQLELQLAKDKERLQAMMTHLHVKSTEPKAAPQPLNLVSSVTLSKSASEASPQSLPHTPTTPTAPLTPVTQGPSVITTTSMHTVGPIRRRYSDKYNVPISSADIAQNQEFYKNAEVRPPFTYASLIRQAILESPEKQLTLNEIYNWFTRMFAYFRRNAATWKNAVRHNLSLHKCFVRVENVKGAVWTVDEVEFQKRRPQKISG
The experiment can be described thus: PD-seq (MBP pull-down with sequencing); 20 mM Tris-HCl pH 7.5, 100 mM NaCl, 1.5 mM MgCl2, 0.4 uM protein, 0.1 uM dsDNA library, 30 min, room temperature, amylose pull-down; high values mean tight binding. Conditions: protein: recombinant; tags: His6-MBP; chain copies: 2; dsDNA, one strand shown. In outline: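 His6-MBP-tagged mouse FoxP3 or FoxP1 fragment lacking the N-terminus, expressed in E. coli, was mixed at 0.4 µM with 0.1 µM Klenow-filled double-stranded degenerate DNA library. Incubation was 30 min at room temperature in Tris pH 7.5 buffer with NaCl and MgCl2. Complexes were caught on amylose resin and washed three times; DNA was released with proteinase K, PCR-barcoded and Illumina-sequenced. Binding is reads-per-million enrichment, pull-down over input, with replicates pooled.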
For the sequence “GATGATTGTTCTCCCAGCTGATGAATTACATACATCGAGTAAACAAATTTTCCTAATCTTTCTGTTCAAGCGCCATCTAC”, the binding signal is 1.5 RPM ratio (pull-down/input).
As for “GATGATTGTTCTCCCAGCTGATGAATTATAAGCCTCGAGTAAACAAATTTTCCTAATCTTTCTGTTCAAGCGCCATCTAC”, the binding signal was 0.944 RPM ratio (pull-down/input).
For the sequence “GATGATTGTTCTCCCAGCTGATGAATTCCCCATTTCGAGTAAACAAATTTTCCTAATCTTTCTGTTCAAGCGCCATCTAC”, the binding signal was 0.836 RPM ratio (pull-down/input).
With “GATGATTGTTCTCCCAGCTGATGAATTCCAGGTGTCGAGTAAACAAATTTTCCTAATCTTTCTGTTCAAGCGCCATCTAC”, the binding signal was 0.856 RPM ratio (pull-down/input).
Take “GATGATTGTTCTCCCAGCTGATGAATTGACCTCGTCGAGTAAACAAATTTTCCTAATCTTTCTGTTCAAGCGCCATCTAC”: the binding signal was 0.929 RPM ratio (pull-down/input).
For “GATGATTGTTCTCCCAGCTGATGAATTTCTTGATTCGAGTAAACAAATTTTCCTAATCTTTCTGTTCAAGCGCCATCTAC”, the binding signal is 1.01 RPM ratio (pull-down/input).
“GATGATTGTTCTCCCAGCTGATGAATTGGTCGAATCGAGTAAACAAATTTTCCTAATCTTTCTGTTCAAGCGCCATCTAC”: the binding signal was 0.945 RPM ratio (pull-down/input).
“GATGATTGTTCTCCCAGCTGATGAATTAGAGAACTCGAGTAAACAAATTTTCCTAATCTTTCTGTTCAAGCGCCATCTAC”: the binding signal is 0.811 RPM ratio (pull-down/input).
Take “GATGATTGTTCTCCCAGCTGATGAATTACCGCGATCGAGTAAACAAATTTTCCTAATCTTTCTGTTCAAGCGCCATCTAC”: the binding signal was 0.929 RPM ratio (pull-down/input).
Consider “GATGATTGTTCTCCCAGCTGATGAATTAAGCTTGTCGAGTAAACAAATTTTCCTAATCTTTCTGTTCAAGCGCCATCTAC”, for which the binding signal was 0.923 RPM ratio (pull-down/input).
Consider “GATGATTGTTCTCCCAGCTGATGAATTCCCATAATCGAGTAAACAAATTTTCCTAATCTTTCTGTTCAAGCGCCATCTAC”, for which the binding signal was 1.18 RPM ratio (pull-down/input).
With “GATGATTGTTCTCCCAGCTGATGAATTTAGCTCTTCGAGTAAACAAATTTTCCTAATCTTTCTGTTCAAGCGCCATCTAC” the figure was 0.826 RPM ratio (pull-down/input); with “GATGATTGTTCTCCCAGCTGATGAATTGAGATAGTCGAGTAAACAAATTTTCCTAATCTTTCTGTTCAAGCGCCATCTAC”, 0.891 RPM ratio (pull-down/input).
In the case of “GATGATTGTTCTCCCAGCTGATGAATTAATCAGATCGAGTAAACAAATTTTCCTAATCTTTCTGTTCAAGCGCCATCTAC”, the binding signal is 0.846 RPM ratio (pull-down/input).
With “GATGATTGTTCTCCCAGCTGATGAATTTGAACTTTCGAGTAAACAAATTTTCCTAATCTTTCTGTTCAAGCGCCATCTAC”, the binding signal was 0.845 RPM ratio (pull-down/input).
Take “GATGATTGTTCTCCCAGCTGATGAATTGTAATGGTCGAGTAAACAAATTTTCCTAATCTTTCTGTTCAAGCGCCATCTAC”: the binding signal is 0.896 RPM ratio (pull-down/input).
As to “GATGATTGTTCTCCCAGCTGATGAATTACGTATTTCGAGTAAACAAATTTTCCTAATCTTTCTGTTCAAGCGCCATCTAC”, the binding signal is 1.14 RPM ratio (pull-down/input).
On to “GATGATTGTTCTCCCAGCTGATGAATTGGGTCAGTCGAGTAAACAAATTTTCCTAATCTTTCTGTTCAAGCGCCATCTAC”, for which the binding signal was 0.796 RPM ratio (pull-down/input).
With “GATGATTGTTCTCCCAGCTGATGAATTAACGGCGTCGAGTAAACAAATTTTCCTAATCTTTCTGTTCAAGCGCCATCTAC” the figure was 0.945 RPM ratio (pull-down/input); with “GATGATTGTTCTCCCAGCTGATGAATTGTCGAACTCGAGTAAACAAATTTTCCTAATCTTTCTGTTCAAGCGCCATCTAC”, 0.936 RPM ratio (pull-down/input).
Take “GATGATTGTTCTCCCAGCTGATGAATTTTCGGGATCGAGTAAACAAATTTTCCTAATCTTTCTGTTCAAGCGCCATCTAC”: the binding signal is 0.824 RPM ratio (pull-down/input).
With “GATGATTGTTCTCCCAGCTGATGAATTCGTCTGATCGAGTAAACAAATTTTCCTAATCTTTCTGTTCAAGCGCCATCTAC” the figure was 0.84 RPM ratio (pull-down/input); with “GATGATTGTTCTCCCAGCTGATGAATTTGAGGAATCGAGTAAACAAATTTTCCTAATCTTTCTGTTCAAGCGCCATCTAC”, 0.905 RPM ratio (pull-down/input); with “GATGATTGTTCTCCCAGCTGATGAATTCCTGAACTCGAGTAAACAAATTTTCCTAATCTTTCTGTTCAAGCGCCATCTAC”, 0.79 RPM ratio (pull-down/input).
Turning to “GATGATTGTTCTCCCAGCTGATGAATTCGCTCACTCGAGTAAACAAATTTTCCTAATCTTTCTGTTCAAGCGCCATCTAC”, the binding signal is 0.816 RPM ratio (pull-down/input).
Turning to “GATGATTGTTCTCCCAGCTGATGAATTGTATCTGTCGAGTAAACAAATTTTCCTAATCTTTCTGTTCAAGCGCCATCTAC”, the binding signal is 1.08 RPM ratio (pull-down/input).
On to “GATGATTGTTCTCCCAGCTGATGAATTAGTACTTTCGAGTAAACAAATTTTCCTAATCTTTCTGTTCAAGCGCCATCTAC”, for which the binding signal was 1.02 RPM ratio (pull-down/input).
Turning to “GATGATTGTTCTCCCAGCTGATGAATTATCGCGCTCGAGTAAACAAATTTTCCTAATCTTTCTGTTCAAGCGCCATCTAC”, the binding signal was 0.975 RPM ratio (pull-down/input).
Consider “GATGATTGTTCTCCCAGCTGATGAATTGGTCCAGTCGAGTAAACAAATTTTCCTAATCTTTCTGTTCAAGCGCCATCTAC”, for which the binding signal was 0.84 RPM ratio (pull-down/input).
For the sequence “GATGATTGTTCTCCCAGCTGATGAATTTGCCTCTTCGAGTAAACAAATTTTCCTAATCTTTCTGTTCAAGCGCCATCTAC”, the binding signal is 1.06 RPM ratio (pull-down/input).
On to “GATGATTGTTCTCCCAGCTGATGAATTTCACCCTTCGAGTAAACAAATTTTCCTAATCTTTCTGTTCAAGCGCCATCTAC”, for which the binding signal was 0.881 RPM ratio (pull-down/input).
Regarding “GATGATTGTTCTCCCAGCTGATGAATTTGAAAGGTCGAGTAAACAAATTTTCCTAATCTTTCTGTTCAAGCGCCATCTAC”, the binding signal is 0.81 RPM ratio (pull-down/input).
